Measured values as given in PMC4336329 (PLoS ONE, 2015).
In all, about 310,000 compounds went through this assay and about 14,000 (4.5%) showed an effect of 50% or more. Effects have a minus sign here. This is one part of the list.

target: human ether-à-go-go-related gene (hERG) potassium channel (human, UniProt Q12809); test: primary screen, population patch clamp on CHO cells stably expressing hERG
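Further: peak tail current of the secondary pulse compared with the same well before compound.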

Sequence of human ether-à-go-go-related gene (hERG) potassium channel (Q12809 whole entry, looked up): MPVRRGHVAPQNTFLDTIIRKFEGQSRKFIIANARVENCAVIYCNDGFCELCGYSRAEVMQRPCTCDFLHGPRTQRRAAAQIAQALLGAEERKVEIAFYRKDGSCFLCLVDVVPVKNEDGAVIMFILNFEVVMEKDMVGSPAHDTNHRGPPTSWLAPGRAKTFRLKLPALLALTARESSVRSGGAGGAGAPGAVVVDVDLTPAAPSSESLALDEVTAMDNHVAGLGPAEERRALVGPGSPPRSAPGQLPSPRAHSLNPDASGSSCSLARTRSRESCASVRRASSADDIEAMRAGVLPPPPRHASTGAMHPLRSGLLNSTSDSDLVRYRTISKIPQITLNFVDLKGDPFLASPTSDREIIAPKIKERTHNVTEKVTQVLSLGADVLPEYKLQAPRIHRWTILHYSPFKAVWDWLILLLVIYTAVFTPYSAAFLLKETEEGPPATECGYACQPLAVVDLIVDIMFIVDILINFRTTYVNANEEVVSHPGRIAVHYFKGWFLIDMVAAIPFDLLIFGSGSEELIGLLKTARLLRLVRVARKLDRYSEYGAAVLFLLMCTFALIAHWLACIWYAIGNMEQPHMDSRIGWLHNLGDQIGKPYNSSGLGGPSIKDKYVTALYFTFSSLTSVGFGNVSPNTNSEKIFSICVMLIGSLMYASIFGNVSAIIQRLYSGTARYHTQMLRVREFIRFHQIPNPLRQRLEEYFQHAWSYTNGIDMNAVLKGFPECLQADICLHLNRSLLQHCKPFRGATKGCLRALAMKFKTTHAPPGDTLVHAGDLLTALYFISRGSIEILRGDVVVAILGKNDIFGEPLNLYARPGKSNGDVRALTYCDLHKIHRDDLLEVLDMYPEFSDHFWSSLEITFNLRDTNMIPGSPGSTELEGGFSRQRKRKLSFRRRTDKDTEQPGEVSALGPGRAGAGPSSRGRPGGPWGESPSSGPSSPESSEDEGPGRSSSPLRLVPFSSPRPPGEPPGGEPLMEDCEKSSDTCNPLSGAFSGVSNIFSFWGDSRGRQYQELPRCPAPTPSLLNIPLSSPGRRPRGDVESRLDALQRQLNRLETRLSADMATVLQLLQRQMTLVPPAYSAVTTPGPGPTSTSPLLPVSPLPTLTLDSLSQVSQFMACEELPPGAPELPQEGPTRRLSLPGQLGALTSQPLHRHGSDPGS

Structure (SMILES) | hERG current change (%, negative = inhibition) at 10uM [%]
O=C(NNc1cccc(Cl)n1)c1c(F)cccc1F | 7.93
CS(=O)(=O)N(CC(=O)N1CCCCC1)Cc1ccc(Cl)cc1 | -2.18
CCn1nc(C)c(/C=C/C(=O)Nc2ccc(C)cc2C)c1C | 8.36
CCOc1ccccc1NC(=O)NNS(=O)(=O)c1cc(OC)ccc1OC | 8.06
COC(=O)c1cc(NC(=O)CSC2=NCCS2)cc(C(=O)OC)c1 | -3.86
O=C(Nc1ccccc1C(=O)NCCCn1ccnc1)c1ccccc1 | -16.5
C=CCO/N=C/C1=C(O)C(C(=O)OC)C(C)(C)CC1=O (centres unmarked) | 5.14
CC(=O)c1c(C)[nH]c(C(=O)CN2C(=O)NC(C)(c3ccc4c(c3)OCCO4)C2=O)c1C (centres unmarked) | 12.4
CCOC(=O)c1c(NC(=O)Cn2cnc([N+](=O)[O-])n2)sc2c1CCC(C)C2 (centres unmarked) | 5.79
CC(=O)c1c(C)[nH]c(C(=O)/C(C#N)=C/c2cccc(C)c2)c1C | 19.7
O=C(C1CCCN(c2ncnc3c2nc2n3CCCCC2)C1)N1CCN(c2ccc(F)cc2)CC1 (centres unmarked) | -66.8
COc1ccc(-c2nc3cc(NC(=S)NC(=O)Cc4ccccc4)ccc3o2)cc1 | 15.6
COc1cc2c(cc1OC)C(C(=O)N(C)Cc1ccccc1)C(c1cccnc1)N(C)C2=O (centres unmarked) | -1.27
Cc1ccn2c(=O)c(NC(=O)c3cccs3)c(C)nc2c1 | 9.36
COCCNC(=O)NC(=O)COC(=O)c1cc([N+](=O)[O-])ccc1Sc1nc(C)cs1 | -6.78
CCOC(=O)COc1c(/C=N\O)cc(Cl)cc1OC | -0.325
CCOC(=O)Cc1csc(NC(=S)NC(=O)c2ccc([N+](=O)[O-])cc2)n1 | 13.8
COc1ccc(/C=C2\NC(=S)N(CC3CCCO3)C2=O)c(OC)c1C (centres unmarked) | -4.57
Cn1c(SCC(=O)Nc2ccc(NC(=O)c3cccs3)cc2)nnc1-c1ccncc1 | 1.2
Cc1ccc(S(=O)(=O)C2CCCCC2=O)cc1 (centres unmarked) | 22.1
Cc1ccc(NC2=C/C(=N/S(=O)(=O)c3cccs3)c3ccccc3C2=O)cc1C | 11.2
Cc1oc(-c2cccc(Cl)c2)nc1CN1CCC(C(=O)NC2CC2)CC1 | 16.2

Structure (SMILES) | hERG current change (%, negative = inhibition) at 10uM [%]
Cc1cccc(NC(=O)c2cc(-c3ccc(C)s3)nc3ccccc23)n1 | 5.03
O=c1c2ccccc2nc(-c2ccccc2)n1Cc1ccccc1 | 4.3
O=C(NC1CCCC1)c1n[nH]c2ccccc12 | 20
CC1Cc2ccccc2N1C(=O)CN1C(=O)C(=O)N(Cc2ccccc2)C1=O (centres unmarked) | 5.26
COc1ccc(-c2cc(C)no2)cc1S(=O)(=O)NCCCN1CCN(c2ccccc2)CC1 | -68
CN(Cc1ccccc1)C(=O)CN1C(=O)NC(C)(c2ccc(C(C)(C)C)cc2)C1=O (centres unmarked) | -16.8
CC(C)Cc1nnc(NC(=O)CCNC(=O)c2ccccc2Cl)s1 | 3.95
CCN(CC)CCNC(=O)C(=O)Nc1cc2c3c(c1)CC(=O)N3CCC2 | 38.8
CCOc1cc(N2CCOCC2)c(OCC)cc1NC(=O)COc1ccccc1[N+](=O)[O-] | 10.1
Cc1nnc(NC(=O)CN2CCN(Cc3c(Cl)cccc3Cl)CC2)s1 | 9.97
Cc1ccc(NC(=O)c2cc(S(=O)(=O)Nc3ccc(C)cc3)cs2)cc1 | 19.3
COc1ccc(OC)c(NC(=O)CSc2nnc(Cc3cccn3C)n2CCc2ccccc2)c1 | -23.3
CCOC(=O)Nc1cc(OC)c(OC)cc1Cc1nccc2cc(OC)c(OC)cc12 | -26.3
Cc1ccc2nc(SCC(=O)NCc3ccc(S(N)(=O)=O)cc3)[nH]c2c1 | 14.2
Cl.c1ccc2c(Nc3nc(N4CCOCC4)c4ccccc4n3)cccc2c1 | -6.79
O=C(C1CCC1)N1CCN(c2ccc(C(F)(F)F)cc2[N+](=O)[O-])CC1 | -64
Cc1cc(Cl)c(OCCCN2CCCCC2)c(Br)c1.O=C(O)C(=O)O | -68.1
Cc1ccc(C(=O)COC(=O)CCC(=O)NC2CCCCC2)cc1[N+](=O)[O-] | 5.09
COc1ccc(Cl)cc1NC(=S)N(CCCN1CCOCC1)Cc1cn(C)c2ccccc12 | -3.33
Cc1ccccc1NC(=O)c1ccc2c(c1)OCCO2 | 15.2
FC(F)(F)c1nc(SCc2ccccc2)n[nH]1 | 16.1
Cc1onc(-c2ccccc2)c1C(=O)NNC(=S)NC(=O)c1ccc2c(c1)OCO2 | 17.2

Structure (SMILES) | hERG current change (%, negative = inhibition) at 10uM [%]
COCCCNC(=O)CSc1nc2ccccc2c(=O)n1CCc1ccc(S(N)(=O)=O)cc1 | -6.07
Cc1ccccc1S(=O)(=O)N1[C@@H](c2cccc(Cl)c2)C(C(=O)O)=CC[C@H]1c1ccc(Cl)cc1 | 0.857
Cc1ccc(OCC(=O)NCCCNC(=O)c2cccnc2)cc1C | 5.12
CC(=O)N=C(N)Sc1nc2ccccc2[nH]1 | -8.83
CC(=O)c1ccc(OC(=O)C2CC(=O)N(c3cccc(C)c3)C2)cc1 (centres unmarked) | -1.85
Cc1ccc(C(=O)Cn2nnc3ccccc32)cc1C | -1.59
O=C(CSc1nc2ccccc2c(=O)[nH]1)NCc1ccc(Cl)cc1 | 2.39
CCOc1ccc2cc(C#N)c(SCC(=O)N3CCC(C)CC3)nc2c1 | 1.48
COc1ccc(CC(=O)NNC(=O)COc2ccc(C)cc2)cc1S(=O)(=O)N1CCOCC1 | 13.5
CCc1nnc(NC(=O)c2ccc3c(=O)n4c(nc3c2)CCCCC4)s1 | -7.28
COc1ccc(CCNC(=O)c2ccc(=O)[nH]c2)cc1OC | 18
COc1ccc(C)cc1NC(=O)c1ccc(CN2CCc3ccccc3C2)cc1 | 13.7
CCCCNS(=O)(=O)c1cccc(S(=O)(=O)N2CCCC2)c1 | -21.1
Cn1c(Cc2cccs2)nnc1SCC(=O)Nc1ccccc1F | 1.93
COc1ccccc1C(=O)N(CCC1CCCN1C)c1nc2ccccc2s1 (centres unmarked) | -50.9
CC1CCN(C(=O)COC(=O)c2ccc(Br)o2)CC1 | 14.7
CN(C)c1ccc(CN(C(=O)C2COc3ccccc3O2)C2CCS(=O)(=O)C2)cc1 (centres unmarked) | -4.46
CCCC(=O)NC(Nc1ccccc1OC)C(Cl)(Cl)Cl (centres unmarked) | -10.9
COc1ccc(S(=O)(=O)N(CC(=O)NCc2ccncc2)c2ccc(C)cc2)cc1Br | -30
Cc1cc(N(C(=O)c2ccco2)C(C(=O)NC2CCCCC2)c2ccccc2)ccc1-n1cnnn1 (centres unmarked) | -18.4
COC(=O)CNC(=O)c1cn(CCC#N)nc1-c1ccc(F)cc1 | 4.27
OCCNC(=S)Nc1ccc(Oc2ccccc2)cc1 | 14.7

Structure (SMILES) | hERG current change (%, negative = inhibition) at 10uM [%]
Cc1ccc(-c2noc(CN3C(C)CCCC3C)n2)cc1 (centres unmarked) | 2.64
Nc1nc(F)nc2c1ncn2[C@@H]1O[C@H](CO)[C@@H](O)[C@@H]1O | 21.2
C/C(=N\NC(=O)c1ccccc1)c1ccccc1F | -14
CC(C)(O)c1[nH]c2ccc(C#N)cc2c1C(C)(C)O | 6.98
CCN1C(=O)/C(=C2\C=Cc3cc(C)ccc3N2CC)OC1=S | 0.13
COc1ccc(NS(=O)(=O)c2cccc(C(=O)NCCCn3ccnc3)c2)cc1 | 17.3
CN1C(=O)C(=Cc2cn(CC(=O)N3CCCC3)c3ccccc23)C(=O)N(C)C1=O | 0.608
CCCN(CCC)S(=O)(=O)c1ccc(N2CCCC2=O)c([N+](=O)[O-])c1 | -19.3
O/N=C(\c1ccccc1)c1nccc2ccccc12 | 8.11
CC1(C)C(=O)Nc2ccccc2N1C(=O)COC(=O)c1cc([N+](=O)[O-])ccc1N | 13.7
Brc1ccc(CNCCCSc2ncccn2)cc1.Cl | -33.4
C=CCNC(=O)NC(=O)COC(=O)/C(C#N)=C/c1ccc(OC)cc1 | 7.97
CC1CC(=O)C2=C(C1)OC(N)=C(C#N)C2c1coc2ccccc2c1=O (centres unmarked) | -0.732
CC1CCN(C(=O)c2nc[nH]c2C(=O)OCCNC(=O)OC(C)(C)C)CC1 | 4.23
CC(=O)Nc1ccc(SC[C@H](Cc2ccccc2)N2CC[C@@H](O)CCC2=O)cc1 | -7.75
O=Cc1ccccc1-n1cncn1 | 9.96
COc1ccc([N+](=O)[O-])cc1N(CC(=O)NCCC1=CCCCC1)S(C)(=O)=O | -0.972
NNC(=O)c1nc[nH]c1C(=O)Nc1ccc(Cl)cc1C(=O)c1ccccc1 | 21.5
COc1ccc(Cc2nnc(NS(=O)(=O)Cc3ccccc3)s2)cc1 | 8.96
Cc1cc(C(=O)CSc2n[nH]c(N)n2)c(C)n1-c1cc(F)ccc1F | -4.75
